Assay results reported in PubChem BioAssay AID1345082 (National Center for Advancing Translational Sciences (NCATS), 2018).
Out of some 94,000 compounds screened, about 4,000 (4.3%) were called active. This list was built around the results that the source calls inconclusive (neither active nor inactive); the mix of calls is not that of the screen. Calls follow the shape of the dose curve; as a rule, active = well fitted inhibition curve with a large enough effect; inconclusive = small, poorly fitted or top-dose-only effect; inactive = no such curve, though single readings can be large or run the other way. Potencies beside an inconclusive call are fits to weak or partial responses and may not hold up.

assay: Cytotoxic Profiling in NIH 3T3 Cell Line of Diverse Libraries Using Quantitative High-Throughput Screening; settings: NIH 3T3 viability, CellTiter-Glo ATP luminescence, 48-72 h; activity change, negative = cytotoxicity: at 96.7 µM (top of the series); series mostly up to 96.7 µM; also: nearly all actives have a fitted effect of over 55% in size
How it was run: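 Cytotoxicity was measured by CellTiter-Glo ATP luminescence after 48 or 72 h compound exposure at 37 °C. Mouse NIH 3T3 fibroblasts were seeded at 400 cells/well and dosed by 23 nL pin transfer.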
% is scaled to controls: 0 for no effect and ±100 for the full control effect; potency is read from the fitted curve at half-maximal effect; tags tell the direction and shape of the fitted curve.

Row | SMILES | activity change, negative = cytotoxicity | Potency | outcome
1 | COC(=O)CNC(=O)C1CN(c2ccc(OC)cc2)C(=O)N1 (stereo not given) | inactive: -10.3% [at 138 µM] | – | –
2 | COCCCNC(=O)c1cn2cc(-c3cccc(C#N)c3)sc2n1 | – | active: 44.7 µM | –
3 | O=C(NCCNC(=O)C1CC1)c1ccc(-c2cncnc2)cc1 | inactive: 2.5% [at 138 µM] | – | –
4 | O=C(NCc1cnccn1)c1nc(-c2ccccc2)cc2[nH]ccc12 | – | inconclusive: 39.8 µM [inhibitor, full curve] | –
5 | Cn1ncc2c(C(=O)NC3CCOCC3)cc(-c3ccccc3C(F)(F)F)nc21 | inactive: -26.2% | – | –
6 | CC(C)(Oc1nn(CC2CC2)c2ccc(CN3CCCC3)cc12)C(=O)Nc1cccnc1 | – | inconclusive: 5.62 µM [inhibitor, full curve, poor fit] | –
7 | CC1(C(=O)Nc2ccncc2)CCCc2cnc(Nc3ccccc3)nc21 (stereo not given) | – | inconclusive: 50.1 µM [inhibitor, full curve, poor fit] | –
8 | CCCCn1c(=O)c(C(=O)N2CCN([S+](=O)([O-])c3c(C)noc3C)CC2)nc2cccnc21 | inactive: -23.5% | – | –
9 | COc1ccc(-c2ccc3ncc(Nc4ccc(OC)c(OC)c4)n3n2)cn1 | – | inconclusive: 10 µM [inhibitor, full curve, poor fit] | –
10 | Cc1ccc(C2Cn3nnc(-c4nc(-c5cccnc5)no4)c3CO2)c(C)c1 (stereo not given) | – | active: 15.8 µM | –
11 | CNC(=O)[C@@H]1C[C@H](n2cc(C(C)(C)NC(=O)c3ccccc3OC)nn2)CN1 | inactive: 2.09% | – | –
12 | CC/C=C\CCc1c(-c2ccccc2)ncn1CCN1CCN(C)CC1 | – | inconclusive: 79.4 µM [inhibitor, partial curve, poor fit] | –
13 | CSCCNC(=O)C1CCN(c2nccc(Nc3ccccc3F)n2)CC1 | – | inconclusive: 44.7 µM [inhibitor, partial curve, poor fit] | –
14 | O=C(C1CC1)N1CCc2nc(-c3ccccc3)nc(-c3ccc(Cl)cc3)c2C1 | inactive: -22.8% | – | –
15 | O=C(NCCN[S+](=O)([O-])c1cccs1)c1cccc(-c2ccsc2)c1 | – | inconclusive: 35.5 µM [inhibitor, partial curve] | –
16 | COc1ccc(-c2cc(N3CCCN(C(=O)c4cccc(Cl)c4)CC3)n[nH]2)cc1 | – | inconclusive: 17.8 µM [inhibitor, full curve] | –
17 | C[S+](=O)([O-])Nc1cccc(Nc2cnc3ccc(-c4cccc(CO)c4)nn23)c1 | – | inconclusive: 39.8 µM [inhibitor, partial curve] | –
18 | CCc1noc(-c2cccn3c(CNC(=O)Cc4ccccc4C)nnc23)n1 | inactive: -7.14% | – | –
19 | CN1CCC(N[C@H]2C[C@@H](Cc3cc(CN(C)Cc4ccccc4)on3)C2(C)C)CC1 | – | active: 28.2 µM | –
20 | Cc1ccc(CNC2CN(C(=O)OC(C)(C)C)C2)nc1 | inactive: -9.87% [at 138 µM] | – | –
21 | Cc1cc(C)cc(NC2=N[C@H]3[C@@H](O)[C@H](O)C[C@H](C(=O)NCc4cccs4)[C@H]3S2)c1 | – | inconclusive: 35.5 µM [inhibitor, partial curve, poor fit] | –
22 | Cc1ccccc1NC(=O)Cn1c(-c2cccc(Cl)c2)nc(C)c(CCO)c1=O | – | inconclusive: 31.6 µM [inhibitor, partial curve, poor fit] | –

Row | SMILES | activity change, negative = cytotoxicity | Potency | outcome
23 | CC(C)n1nc(OC(C)(C)C(=O)NCC2CCOCC2)c2cc(CN3CCOCC3)ccc21 | – | inconclusive: 11.2 µM [inhibitor, full curve, poor fit] | –
24 | CC(C)NC(=O)c1cc(-c2ccc(F)cc2)cn1C | inactive: -4.53% | – | –
25 | Cc1ccc(C)c(Cn2c(-c3ccc(F)cc3)nc(C)c(CCO)c2=O)c1 | – | inconclusive: 50.1 µM [inhibitor, partial curve, poor fit] | –
26 | COc1ccc(CN2CC(CNc3ccccc3)C3(C2)CN(c2ccccc2)C3)cc1O (stereo not given) | – | active: 28.2 µM | –
27 | COCCC1(CO)CCCN(C(=O)c2ccc3c(c2)OCC(=O)N3)C1 (stereo not given) | inactive: 2.2% | – | –
28 | N#Cc1ccc(C(=O)N2CCCN(c3cc(-c4ccc(Cl)cc4)[nH]n3)CC2)cc1 | – | inconclusive: 17.8 µM [inhibitor, full curve] | –
29 | CCOC(=O)[C@H]1C[C@]2(CCCCN(CCOC)C2=O)N(C(C)=O)[C@H]1c1ccco1 | – | inconclusive: 50.1 µM [inhibitor, partial curve, poor fit] | –
30 | O=C1c2c(nc(CNCc3cccc(Cl)c3)n2Cc2ccccc2)NCCN1Cc1ccccc1F | – | inconclusive: 44.7 µM [inhibitor, partial curve, poor fit] | –
31 | COc1ccc(CNC(=O)CNC(=O)c2ccc(-c3cnc4ccccc4c3)cc2)cc1 | – | inconclusive: 6.31 µM [inhibitor, partial curve, poor fit] | –
32 | COc1cccc(N2C(=O)NC(=NC3CCCCC3)C23CCN(C(=O)c2ccccc2)CC3)c1 | – | active: 31.6 µM | –
33 | COc1ccc(-c2cc(N3CCC(NC(=O)c4cc(C)cc(C)c4)C3)n[nH]2)cc1 (stereo not given) | inactive: -17% | – | –
34 | O=C1Nc2ccccc2CC12CCN(Cc1ccc(OC(F)(F)F)cc1)C2 (stereo not given) | – | inconclusive: 6.31 µM [inhibitor, full curve, poor fit] | –
35 | COc1cccc(-c2ccc(CN3CCCC(NC(=O)Cc4ccccn4)C3)cc2)c1 (stereo not given) | – | inconclusive: 44.7 µM [inhibitor, partial curve, poor fit] | –
36 | Cc1ccc(CNC(=O)N2CCCCCC2c2nc(-c3ccccc3)no2)cc1 (stereo not given) | – | inconclusive: 44.7 µM [inhibitor, partial curve, poor fit] | –
37 | CC(=O)N1CCN(c2cc(-c3noc([C@@H]4CCCN4Cc4ccc(C(F)(F)F)cc4)n3)ccn2)CC1 | inactive: -35.3% | – | –
38 | O=C(c1c2c(nc3ccccc13)CCCC2)N1CCCC(c2nc(C3CCOCC3)no2)C1 (stereo not given) | – | inconclusive: 56.2 µM [inhibitor, partial curve, poor fit] | –
39 | Cc1nc(-c2c3n(c(=O)n(Cc4ccc(OC(F)(F)F)cc4)c2=O)CCCCC3)no1 | – | inconclusive: 50.1 µM [inhibitor, partial curve, poor fit] | –
40 | COc1ccc(-c2noc([C@@H]3C[C@H](NC(=O)COCC(=O)O)CN3C)n2)cc1 | inactive: -1.52% [at 138 µM] | – | –
41 | CC(NC(=O)C1CC(c2ccccc2)CN(C(=O)c2ccc(F)cc2)C1)c1ccccc1 (stereo not given) | – | inconclusive: 56.2 µM [inhibitor, partial curve, poor fit] | –
42 | Cc1ccc(-c2ccc(C=O)cc2)cc1Cl | – | inconclusive: 126 µM [inhibitor, partial curve, poor fit] | –
43 | C[S+](=O)([O-])N1CCn2c(nnc2C(N)c2ccccc2)C1 (stereo not given) | – | – | inactive
44 | Cc1nc(N2CCC(NC(=O)c3ccco3)CC2)cc(C(F)(F)F)n1 | inactive: -7.04% | – | –

Row | SMILES | activity change, negative = cytotoxicity | Potency | outcome
45 | O=C(NCCCc1ccccc1)C1CCN(c2cc(C(F)(F)F)ncn2)CC1 | – | inconclusive: 12.6 µM [inhibitor, full curve] | –
46 | COC(=O)c1nc(NC(=O)Cn2nc3c(cc2=O)CCCC3)sc1-c1ccccc1 | – | inconclusive: 44.7 µM [inhibitor, partial curve, poor fit] | –
47 | CC(=O)N1CCCC(c2nc(CCOCC3CC3)no2)C1 (stereo not given) | inactive: 2.27% | – | –
48 | COc1ccccc1-c1[nH]nc2ncc(-c3ccccc3O)nc12 | – | inconclusive: 56.2 µM [inhibitor, partial curve, poor fit] | –
49 | O=C(N1c2ccccc2CC1c1nnc(C2CCOCC2)o1)C1(c2ccccc2)CC1 (stereo not given) | – | inconclusive: 70.8 µM [inhibitor, single point] | –
50 | COc1cccc(-c2ccc(CN3CCCC(NC(=O)Cc4cccc(Cl)c4)C3)cc2)c1 (stereo not given) | – | inconclusive: 14.1 µM [inhibitor, full curve, poor fit] | –
51 | CN(c1cc(=O)c2ccnc(-c3ccc(O)c(F)c3)c2o1)C1CCOCC1 | – | active: 8.91 µM | –
52 | Cc1ccsc1CN1CCn2nnc(CCC(=O)NCc3ccccc3)c2C1 | – | inconclusive: 56.2 µM [inhibitor, partial curve, poor fit] | –
53 | O=C(c1ccc(F)cc1)N1CCN(c2nc3ncccc3o2)CC1 | inactive: -22.2% [at 138 µM] | – | –
54 | C[C@@H](c1ccccc1)N1C(=O)[C@@H]2CN(S(=O)(=O)c3cccs3)CCN2C1=O | – | inconclusive: 112 µM [inhibitor, partial curve, poor fit] | –
55 | CN(C)C(=O)c1cc(-c2cccc(F)c2)nc2c1cnn2C | – | inconclusive: 100 µM [inhibitor, partial curve, poor fit] | –
56 | Cn1ncc2c(C(=O)NCC(F)(F)F)cc(-c3ccccc3C(F)(F)F)nc21 | – | inconclusive: 50.1 µM [inhibitor, partial curve, poor fit] | –
57 | O=C(c1ccsc1)N1CCCC(c2noc(COc3ccccc3F)n2)C1 (stereo not given) | – | inconclusive: 44.7 µM [inhibitor, partial curve, poor fit] | –
58 | COc1ccccc1CCC(=O)N1CCC2(CC1)NC(=O)N(c1ccc(F)cc1)N2 | – | inconclusive: 39.8 µM [inhibitor, partial curve] | –
59 | CC(Oc1ccccc1)C(=O)N1CCC(n2cc(-c3nc(-c4ccccc4)no3)nn2)CC1 (stereo not given) | – | inconclusive: 56.2 µM [inhibitor, partial curve, poor fit] | –
60 | COCCNC(=O)c1ccc(OC2CCN(C(C)CCSC)CC2)c(Cl)c1 (stereo not given) | – | inconclusive: 89.1 µM [inhibitor, partial curve, poor fit] | –
61 | O=C([C@@H]1C[C@H](Oc2ccccc2)CN1S(=O)(=O)c1cccnc1)N1CCCC1 | inactive: -4.44% | – | –
62 | O=C(O)c1ccc(CN2CC[C@@H](c3ccc4ccccc4c3)[C@H](O)C2)cc1 | – | – | inactive
63 | O=C(c1ccc2c(c1)OCO2)N1CCC2(CC1)CC(c1cccc(C(F)(F)F)c1)=NO2 | – | inconclusive: 35.5 µM [inhibitor, partial curve] | –
64 | Cc1cccc(C(=O)N2C(C(=O)NCc3ccccc3)COC23CCN(C(=O)CC(C)(C)C)CC3)c1 (stereo not given) | inactive: -21.3% | – | –
65 | CNC(=O)c1cc(C2CC2)nc2c1c(C1CCCN(C(=O)c3cccc(Cl)c3)C1)nn2C (stereo not given) | inactive: -22.1% | – | –
